The whole screen tested about 410,000 compounds, of which about 6,400 (1.6%) were called active. Inconclusive results, whose numbers are uncertain, are shown with a selection of clear calls. The call rests on the fitted dose curve; in most records, active means well fitted inhibition curve with a large enough effect; inconclusive means small, poorly fitted or top-dose-only effect; inactive means no such curve, though single readings can be large or run the other way. No potency is given beside an inconclusive call; the fits are too rough.
Each compound was assayed against Glucagon-like peptide 1 receptor (Homo sapiens) (UniProt P43220) (assay: qHTS of GLP-1 Receptor Inverse Agonists (Inhibition Mode)). Settings: HEK293 GLP-1R CRE-luciferase, luminescence, 24 h, GLP-1R form is constitutively active; activity change, negative = inhibition: at 38.3 µM (top of the series) unless noted.
Chain of UniProt P43220 (P43220 whole entry, looked up): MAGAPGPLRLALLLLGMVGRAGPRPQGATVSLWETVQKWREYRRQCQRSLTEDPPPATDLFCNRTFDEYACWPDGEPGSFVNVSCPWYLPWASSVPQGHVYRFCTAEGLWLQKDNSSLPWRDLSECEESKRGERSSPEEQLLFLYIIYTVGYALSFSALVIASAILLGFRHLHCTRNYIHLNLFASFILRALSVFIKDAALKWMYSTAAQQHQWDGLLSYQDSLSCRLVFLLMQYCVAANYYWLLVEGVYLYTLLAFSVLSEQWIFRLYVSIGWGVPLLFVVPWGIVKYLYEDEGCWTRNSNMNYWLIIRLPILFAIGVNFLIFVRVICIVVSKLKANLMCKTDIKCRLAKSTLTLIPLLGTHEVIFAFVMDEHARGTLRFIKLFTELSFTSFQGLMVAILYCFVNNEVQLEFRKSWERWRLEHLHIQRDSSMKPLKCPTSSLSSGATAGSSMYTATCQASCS
Outline: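 Inverse agonism was detected as reduced cAMP-driven luciferase luminescence after 24 h compound treatment. The cells were HEK293 clones expressing constitutively active human GLP-1R with the reporter. Reporter-only and GPR119 cell lines served as counterscreen controls.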
With `COc1cc(C(O)c2nc(-c3cnn(C)c3)cs2)ccc1F` (stereo not drawn) the “activity change, negative = inhibition” value was inactive: -19.5%.
For `CN1CCN(S(=O)(=O)c2ccc(N(C)Cc3ccc(OC(F)F)cc3)c([N+](=O)[O-])c2)CC1`, the Potency was active: 10 µM.
For `CCCCCCOc1ccc(/C(C)=N/NC2=NCCN2)cc1[N+](=O)[O-]`, the Potency was inconclusive [inhibitor, partial curve, poor fit].
In the case of `N#Cc1c(F)cccc1NCCCn1ccnc1`, the “activity change, negative = inhibition” value is reported as inactive: 9.92%.
With `CCCOc1ccc(NC(=O)CC2C(=O)N(C)C(=S)N2Cc2cccs2)cc1` (stereo not drawn) the Potency was active: 7.94 µM.
For `COc1ccc(C(=O)Cn2c(=N)n(C)c3ccccc32)cc1`, the “activity change, negative = inhibition” value was inactive: -16.9%.
With `CCC(c1nc2ccccc2[nH]1)n1c(=O)c(-c2cccs2)nc2ccccc21` (stereo not drawn) the Potency was active: 10 µM.
With `Cc1ccc(NC(=S)N(Cc2cccc(Br)c2)CC2CCC(C(=O)O)CC2)cc1Cl` (stereo not drawn) the Potency was inconclusive [inhibitor, single point].
With `c1ccc(-c2cc(-c3ccccc3)[nH]n2)cc1` the Potency was inconclusive [inhibitor, single point].
In the case of `CCN(CC)CCN(C)Cc1nc(C(c2ccccc2)c2ccccc2)no1`, the Potency is reported as inconclusive [inhibitor, single point].
In the case of `Cc1cccc(C)c1OCC(=O)N/N=C/c1ccc2c(c1)OCO2`, the Potency is reported as inconclusive [inhibitor, full curve].
For `COc1ccccc1CNC(=O)Cc1csc2nc(-c3ccc(Cl)cc3)cn12`, the Potency was inconclusive [inhibitor, single point].
`OCCC#Cc1ccc(N2C(c3ccsc3)=Cc3ccc(F)cc3C2c2c[nH]c3ccccc23)cc1` (stereo not drawn) was tested, and the Potency was inconclusive [inhibitor, partial curve, poor fit].
With `CC(C)OC(=O)c1sc2nc(-c3ccccc3)ccc2c1N` the Potency was inconclusive [inhibitor, full curve, poor fit].
With `CC1CCCCN1CCNC(=O)c1cc2c(-c3ccccc3F)nn(C)c2s1` (stereo not drawn) the Potency was inconclusive [inhibitor, partial curve, poor fit].
For `CCOc1ccc2[nH]c(=O)c(CN(Cc3ccc(F)cc3)C(=O)c3ccco3)cc2c1`, the Potency was inconclusive [inhibitor, single point].
In the case of `CCN(CC)CCCNC(=O)C1CCC(CNS(=O)(=O)c2c(C)cc(C)cc2C)CC1` (stereo not drawn), the Potency is reported as inconclusive [inhibitor, partial curve, poor fit].
With `Cc1cccc(C)c1NC1=NC(=S)N(c2ccc(N(C)C)cc2)C1(C)C` the Potency was inconclusive [inhibitor, single point].

— PubChem BioAssay AID624417 (National Center for Advancing Translational Sciences (NCATS), 2012)
Further: nearly all actives have a fitted effect of over 55% in size.
On the % scale 0 is the no-effect control and ±100 the full control effect; potency means the concentration at half of the fitted maximal effect; tags describe the fitted curve by direction and shape.
